Test results taken from publication PMC4336329 (PLoS ONE, 2015).
The campaign covered roughly 310,000 compounds. About 2,200 (0.71%) showed an effect of 50% or more. The effect is printed as a negative number. Some of the results follow.

These compounds were tested against human ether-à-go-go-related gene (hERG) potassium channel (human, UniProt Q12809) (assay: primary screen, population patch clamp on CHO cells stably expressing hERG).
Sequence of human ether-à-go-go-related gene (hERG) potassium channel (Q12809 whole entry, looked up): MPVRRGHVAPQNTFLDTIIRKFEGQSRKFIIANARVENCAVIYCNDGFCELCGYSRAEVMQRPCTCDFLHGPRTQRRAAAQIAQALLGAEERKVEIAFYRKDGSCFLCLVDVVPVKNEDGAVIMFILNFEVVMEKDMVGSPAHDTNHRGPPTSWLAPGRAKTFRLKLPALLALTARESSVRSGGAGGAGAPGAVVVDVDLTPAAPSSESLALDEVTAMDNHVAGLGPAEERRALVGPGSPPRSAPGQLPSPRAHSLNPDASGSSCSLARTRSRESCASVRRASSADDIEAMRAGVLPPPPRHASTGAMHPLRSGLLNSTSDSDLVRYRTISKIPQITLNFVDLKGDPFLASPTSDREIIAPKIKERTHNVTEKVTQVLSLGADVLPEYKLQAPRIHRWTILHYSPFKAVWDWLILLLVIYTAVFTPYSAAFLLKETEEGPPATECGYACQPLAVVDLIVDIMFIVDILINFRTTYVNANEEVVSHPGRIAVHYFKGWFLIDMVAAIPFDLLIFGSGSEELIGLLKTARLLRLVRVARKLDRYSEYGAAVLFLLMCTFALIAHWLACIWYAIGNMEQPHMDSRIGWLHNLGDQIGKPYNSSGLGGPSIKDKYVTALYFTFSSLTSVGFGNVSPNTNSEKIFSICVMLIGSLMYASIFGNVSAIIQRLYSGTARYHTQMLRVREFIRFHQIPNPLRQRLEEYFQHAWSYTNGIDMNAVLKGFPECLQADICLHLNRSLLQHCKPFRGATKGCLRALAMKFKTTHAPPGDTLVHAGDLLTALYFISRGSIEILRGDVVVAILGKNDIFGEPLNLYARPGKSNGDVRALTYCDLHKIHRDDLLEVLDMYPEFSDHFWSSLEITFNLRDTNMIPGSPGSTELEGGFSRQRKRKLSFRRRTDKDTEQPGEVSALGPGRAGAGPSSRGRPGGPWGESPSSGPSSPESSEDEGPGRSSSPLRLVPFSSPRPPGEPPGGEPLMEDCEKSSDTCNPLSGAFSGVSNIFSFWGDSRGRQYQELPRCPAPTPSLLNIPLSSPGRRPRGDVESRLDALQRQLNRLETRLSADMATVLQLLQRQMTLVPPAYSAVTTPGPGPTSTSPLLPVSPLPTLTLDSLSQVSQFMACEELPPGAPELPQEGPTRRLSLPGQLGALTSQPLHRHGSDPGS

SMILES | hERG current change (%, negative = inhibition) at 1uM [%]
Cc1cc(C)c(NC(=O)CS(=O)CC(=O)Nc2ccc(N3CCOCC3)cc2)c(C)c1 (centres unmarked) | 7.99
CC(=O)N1N=C(c2cccc([N+](=O)[O-])c2)OC1c1ccc(Cl)cc1Cl (centres unmarked) | 14.4
O=C(NC1CC1)c1ccc2c(c1)N(Cc1ccccc1)CCS2 | 6.09
NC(=O)NC(=O)Nc1ccccc1Cl | 6.75
CN1CCN(C(=O)c2ccccc2N(Cc2ccccc2)S(=O)(=O)c2ccccc2)CC1 | 9.82
CC(C)Oc1ccc(Cc2n[nH]c(=S)n2Cc2ccccc2)cc1Cl | 5.04
Cn1c(Cc2cccs2)nnc1SCC(=O)Nc1ccccc1 | 11.6
CC(C)(C)c1ccc(NC(=O)CCNC(=O)c2ccco2)cc1 | 14.1
CC(OC(=O)/C=C/c1ccco1)C(=O)Nc1cccc([N+](=O)[O-])c1 (centres unmarked) | 8.99
O=C(NCCCO)c1cc([N+](=O)[O-])cc2c1C=Cc1ccccc1O2 | -12.9
CCN(CC(=O)Nc1cccc(F)c1)CC(=O)Nc1ccccc1OC | -0.967
COC(=O)C1CCN(c2nc3ccccc3nc2C(C#N)C(=O)OCC(C)C)CC1 (centres unmarked) | 6.17
O=C(COc1ccccc1Cl)Nc1cc(Cl)ccc1Oc1ccccc1 | 11.2
CCS(=O)(=O)NCCc1csc(-c2ccccc2)n1 | 5.16
CCOC(=O)N1CCC(NC(=O)c2cc(S(=O)(=O)N3CCCC3)cn2C)CC1 | 6.54
CCN(CC(=O)Nc1c(F)cccc1F)C(=O)c1ccc(NC(=O)CC2SC(N3CCCC3)=NC2=O)cc1 (centres unmarked) | 6.54
O=[N+]([O-])c1nn(-c2ccc3c(c2)OCCO3)n(O)c1=NCCC1=CCCCC1 | 6.29
Cc1cc(NC(=O)c2ccc(Cl)cc2)c(C)cc1O | 5.06
CCn1ccnc1CN(C)Cc1cn(-c2cc(C)ccc2C)nc1-c1ccccc1 | -19.5
O=S(=O)(c1ccc(OCC(O)CN2CCN(c3ccc(F)cc3)CC2)cc1)N1CCOCC1 (centres unmarked) | -0.0571
CC1CCN(S(=O)(=O)c2ccc(NC(=O)c3cccs3)cc2)CC1 | 7.51
O=C(O)c1cccc(Nc2ncnc3ccccc23)c1 | 14

SMILES | hERG current change (%, negative = inhibition) at 1uM [%]
CCCNC(=S)N1CCN(Cc2ccc3c(c2)OCO3)CC1.O=C(O)C(=O)O | -5.97
COc1ccc(C(=O)COC(=O)C2CC3CCCC(C2)C3=O)cc1Br (centres unmarked) | 7.42
CC(C)(C)N1CCC1C(N)=O (centres unmarked) | 3.68
O=C(CCCOc1ccc(Cl)cc1)NCC1CCCO1 (centres unmarked) | 10.2
CC(C)n1c(=O)[nH]c2cc(C(=O)Nc3ccccc3)ccc21 | 13.6
COc1ccc(C(=O)N/N=C2/SCC(=O)N2Cc2ccc3c(c2)OCO3)cc1OC | 11.1
CCCC(=O)Nc1nnc(SCC(=O)N2CCCCC2)s1 | 6.17
CC[C@H]1c2[nH]c3ccccc3c2C[C@@H]2C(=O)N(c3ccc(F)cc3)C(=O)N21 | 11.6
CN1CCN(C(=S)NC(=O)c2ccco2)CC1 | 4.35
COc1ccc(N(CC(=O)N2CCN(c3ccccc3)CC2)S(=O)(=O)c2ccc(C)cc2)cc1 | 15
CCOC(=O)C(=O)Nc1ccc([N+](=O)[O-])cc1OC | 7.06
CCOC(=O)C1CCCN(C(=O)c2cccc(S(=O)(=O)N(Cc3ccccc3)c3ccccc3OC)c2)C1 (centres unmarked) | -11.6
COc1ccc(C(=O)Nc2ncc3c(n2)CC(c2ccco2)CC3=O)cc1 (centres unmarked) | -3.46
O=C(/C=C/c1ccccc1Cl)Nn1cnc2ccccc2c1=O | 11.4
Cc1nnc2sc(-c3cccc(NC(=O)c4cccnc4)c3)nn12 | -0.992
CC(C)(C)c1ccc(OCc2nnc(SCC(N)=O)n2N)cc1 | -3.25
COc1ccc(NC(=O)c2ccc(COc3ccccc3OC)o2)cc1OC | 8.76
COC(=O)c1ccccc1NC(=O)CSc1[nH]c(=O)cc(C)c1C#N | 18
COc1ccc(NC(=O)CSc2nnc(-c3cnccn3)n2C)cc1OC | 21.9
COc1ccc(NC(=O)CN(C)C(=O)c2cccnc2Sc2ccc(C)c(C)c2)cc1 | 0.0587
O=C(OC[C@H]1O[C@@H](OC(=O)c2cc(O)c(O)c(OC(=O)c3cc(O)c(O)c(O)c3)c2)[C@H](OC(=O)c2cc(O)c(O)c(OC(=O)c3cc(O)c(O)c(O)c3)c2)[C@@H](OC(=O)c2cc(O)c(O)c(OC(=O)c3cc(O)c(O)c(O)c3)c2)[C@@H]1OC(=O)c1cc(O)c(O)c(OC(=O)c2cc(O)c(O)c(O)c2)c1)c1cc(O)c(O)c(OC(=O)c2cc(O)c(O)c(O)c2)c1 | 12.2
O=C1NC2(CCCC2)C(=O)N1Cc1cc(=O)n2ccsc2n1 | 11.4

SMILES | hERG current change (%, negative = inhibition) at 1uM [%]
O=C(Nc1cccnc1)Nc1cc(Cl)cc(Cl)c1 | 2.53
O=C(O)C1C2C=CC3(CN(c4cccc(C(F)(F)F)c4)C(=O)C13)O2 (centres unmarked) | 18.4
O=C(CN(Cc1cccs1)C(=O)CN1C(=O)COc2ccccc21)NCc1ccco1 | 2.09
CC(=O)NNC(=O)c1nc(-c2ccccc2)c(C)o1 | 14.5
CC1(C)CN(c2ccc(N3CC(C)(C)C3=O)cc2)C1=O | 10.3
Cc1sc2ncnc(N3CCC(C(=O)Nc4ccc(Cl)c(Cl)c4)CC3)c2c1C | 10.4
CC(=O)Nc1nc(N2C(=O)c3ccccc3C2=O)n(-c2ccccc2)n1 | 24.3
COc1cccc(CNC(=O)C(=O)N2CCC3(CC2)OCCN3S(=O)(=O)c2ccc(C)cc2)c1 | -10.9
Cc1ccc(N(C(=O)c2ccc(CN3CCOCC3)o2)C(C(=O)NCCC(C)C)c2cccs2)c(C)c1 (centres unmarked) | 6.63
CCCCNC(=O)CNC(=S)N(Cc1ccccc1)Cc1cccnc1 | 1.95
NNc1ccc(Cl)nn1 | 7.62
CC(=O)N1CCc2cc(S(=O)(=O)CCC(=O)N3CCc4ccccc4C3)ccc21 | 19.2
O=C(NCc1csc(-c2cccs2)n1)c1cccc(Cl)c1 | 15.4
CC(=O)Nc1ccccc1OCCOc1ccc(Br)cc1 | 5.43
CCCN1CCN(C(=O)Cn2nc(C)n3c(cc4sccc43)c2=O)CC1 | -7.23
CN(CC(=O)Nc1c(Cl)cccc1Cl)C(=O)c1cc(-c2cccs2)nn1-c1ccccc1 | -2.47
O=C(CSc1nnc(CNC(=O)c2ccc(F)cc2)o1)NCc1ccccc1 | -1.97
CCCc1cc(=O)n2[nH]c(NC(=O)c3ccco3)nc2n1 | 14.9
COc1ccc(NC(=O)CS(=O)(=O)c2ccc(Br)cc2)cc1 | 20
CN1CCN(NC(=S)Nc2ccc(Oc3ccccc3)cc2)CC1 | 13.5
CCn1ccnc1CN(C)Cc1cn(C)nc1-c1ccccc1F | 16.6
Br.N=C(N)SCCN | 15.3

SMILES | hERG current change (%, negative = inhibition) at 1uM [%]
COC(=O)c1c(NC(=O)c2ccc(Br)s2)sc2c1CCC2 | -1.26
O=C(NCC1CCCO1)c1ccc2c(c1)S(=O)(=O)c1ccccc1C2=O (centres unmarked) | 3.24
Cc1ccc(Cc2cncc(O)c2)cc1S(=O)(=O)O | 7.4
O=C(O)c1cn(Cc2ccccn2)c(=O)c2ccccc12 | 0.0087
Cc1ccc(OCCSc2nnc(NC(=O)c3ccco3)s2)cc1 | 13.7
CCOC(=O)CCC(=O)N1CCOCCOCCOCC1 | 4.01
COc1ccc(C2c3c(ccc4ccccc34)Oc3ncn4nc(CO/N=C/c5ccccc5)nc4c32)cc1 (centres unmarked) | 11.1
CCS(=O)(=O)c1ccc2oc(SCC(=O)NCCc3ccc(OC)cc3)nc2c1 | -4.88
CCN(CC)CCCN=Cc1c(O)n(-c2cccc(C)c2)c(=O)c2ccccc12 | -5.31
COc1c(C)cc(C(=O)C2CCCN(Cc3cccc4nccnc34)C2)cc1C (centres unmarked) | -21.2
CC(=O)NCCc1nc2ccccc2n1CCOc1ccccc1 | 13
Cn1nc(-c2ccc(N3CCOCC3)c(NS(=O)(=O)c3ccccc3)c2)c2ccccc2c1=O | -8.02
CC1CCCCN1C(=O)NC12CC3CC(CC(C3)C1)C2 (centres unmarked) | 1.78
O=C(CSc1nnc(CNc2ccc(Cl)cc2)o1)Nc1nc2c(s1)CCCC2 | -3.66
CCn1c(-c2cccnc2Cl)nc2cc(C)c(C)cc21 | -2.87
CCOC(=O)Cc1csc(NC(=O)c2ccc(Br)cc2)n1 | 13.4
O=C(NNC(=S)NCc1ccccc1)c1ccc(Br)o1 | 8.57
COCCNC(=S)N(CCO)Cc1cc2cc3c(cc2[nH]c1=O)OCO3 | 16.2
Cc1cc(NC(=O)CSc2nc(C(C)(C)C)nc3ccccc23)no1 | 7.92
CCCn1nc(NC(=O)c2ccco2)c2cc3cc(C)ccc3nc21 | 5.26
